According to PubChem BioAssay AID2675 (National Center for Advancing Translational Sciences (NCATS), 2010):
Out of some 280,000 compounds screened, about 100 (0.036%) were called active. This list was built around the results that the source calls inconclusive (neither active nor inactive); the mix of calls is not that of the screen. Calls follow the shape of the dose curve; as a rule, active = well fitted inhibition curve with a large enough effect in the signal ratio, with a control signal flat (not every such curve was filed as active); inconclusive = small, poorly fitted or top-dose-only effect, or effect the other way, or a change in a side signal; inactive = no such curve, though single readings can be large or run the other way; the % refers to the signal ratio. Where the call is inconclusive, the potency comes from a doubtful curve fit. “Side channel” marks fits to a control or component signal instead of the main read-out.

target: Muscleblind-like protein 1 (Homo sapiens) (UniProt Q9NR56); experiment: qHTS Assay for Inhibitors of MBNL1-poly(CUG) RNA binding; conditions: TR-FRET MBNL1-His/biotin-(CUG)12 binding, 665/545 ratio; activity change, negative = inhibition: at 57.5 µM (top of the series)
Sequence of UniProt Q9NR56 (Q9NR56 whole entry, looked up): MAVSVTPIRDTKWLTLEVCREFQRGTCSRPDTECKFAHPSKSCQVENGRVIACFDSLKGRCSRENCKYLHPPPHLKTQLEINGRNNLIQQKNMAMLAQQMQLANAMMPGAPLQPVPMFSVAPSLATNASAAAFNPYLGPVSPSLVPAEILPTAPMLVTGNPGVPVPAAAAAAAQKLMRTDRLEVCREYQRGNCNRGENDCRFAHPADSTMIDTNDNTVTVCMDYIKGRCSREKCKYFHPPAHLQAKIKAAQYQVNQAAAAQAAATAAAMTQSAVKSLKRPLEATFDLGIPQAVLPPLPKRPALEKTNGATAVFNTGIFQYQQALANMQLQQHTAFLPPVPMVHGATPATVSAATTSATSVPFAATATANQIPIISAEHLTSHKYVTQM
How it was run: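 Inhibition of protein-RNA binding appears as loss of TR-FRET between terbium anti-His antibody on MBNL1-His and streptavidin-XL665 on biotin-(CUG)12. Activity is normalized to buffer-only and uninhibited-complex controls.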
% is scaled to controls: 0 for no effect and ±100 for the full control effect; potency is read from the fitted curve at half-maximal effect; tags tell the direction and shape of the fitted curve or compound fluorescence and quenching.

SMILES	Potency	activity change, negative = inhibition
COc1ccc(CCN2C(=O)c3cccnc3C2=O)cc1OC	inconclusive: 10 µM [quencher, side channel, partial curve]	–
COc1cc(C(=O)Nc2nnc(CC(C)C)s2)c([N+](=O)[O-])cc1OC	inconclusive: 35.5 µM [quencher, side channel, single point]	–
N#C/C(=C/c1ccc(-c2ccc(C(=O)O)c(Cl)c2)o1)C(=O)NCC1CCCO1 (configuration not stated)	inconclusive: 11.2 µM [quencher, side channel, partial curve]	–
COc1ccc(C2=NN(C(=O)CCC(=O)O)C(c3ccc([N+](=O)[O-])cc3)C2)cc1 (configuration not stated)	inconclusive: 28.2 µM [quencher, side channel, single point]	–
COc1ccc(C(C)=O)cc1COC(=O)c1ccc(N)c([N+](=O)[O-])c1	inconclusive: 1.78 µM [quencher, side channel, full curve]	–
CCN1CCN(C(=O)/C=C/c2ccc(OC)c(OC)c2)CC1	inconclusive: 35.5 µM [quencher, side channel, single point]	–
Cc1nc(NC(=O)/C=C/c2ccc(F)cc2)sc1C(=O)N(C)C	inconclusive: 11.2 µM [quencher, side channel, partial curve, poor fit]	–
Cn1cccc1/C=C1\CCc2ccccc2C1=O	inconclusive: 28.2 µM [quencher, side channel, single point]	–
O=C(Nc1ccccc1NC(=O)C1CCCO1)c1ccco1 (configuration not stated)	inconclusive: 31.6 µM [fluorescent, side channel, single point]	–
CN1CCC(NC(=S)Nc2cccc([N+](=O)[O-])c2)CC1	inconclusive: 25.1 µM [quencher, side channel, partial curve]	–
O=S(=O)(c1cccs1)N1CCN(C/C=C/c2ccccc2)CC1	–	inactive: -8.65%
CC(=O)Nc1ccc(S(=O)(=O)N=S(C)(C)=O)cc1	inconclusive: 2 µM [quencher, side channel, single point]	–
Cc1ccccc1NC(=O)CCn1c(=O)oc2ccccc21	inconclusive: 4.47 µM [quencher, side channel, single point]	–
Cc1ccc(OCC(=O)Nc2ccc(O)c(-c3nc4ccccc4o3)c2)cc1	inconclusive: 6.31 µM [quencher, side channel, single point]	–
O=c1c2ccccc2n(CC(O)CN2CCOCC2)c2ccccc12 (configuration not stated)	inconclusive: 10 µM [quencher, side channel, partial curve]	–
Cc1ccc(/C=N/Nc2nc3ccccc3[nH]2)s1	inconclusive: 39.8 µM [quencher, side channel, single point]	–
O=C(NC(=S)NCc1ccncc1)c1ccccc1	–	inactive: 2.72%
COc1ccc(CNCC(O)COc2cccc3c2OC(C)(C)C3)cc1 (configuration not stated)	–	inactive: -9.43%
Cc1ccc([N+](=O)[O-])cc1S(=O)(=O)NCc1cccnc1	inconclusive: 15.8 µM [quencher, side channel, partial curve]	–
CSC1=C(C#N)C(c2ccccc2Cl)C2=C(CCCC2=O)N1 (configuration not stated)	inconclusive: 12.6 µM [quencher, side channel, partial curve]	–
COc1ccccc1CNC(=O)CSc1nnc2ccc(-c3cccnc3)nn12	inconclusive: 20 µM [quencher, side channel, partial curve]	–

SMILES	Potency	activity change, negative = inhibition
COc1ccc(OCC(=O)Nn2c(-c3ccc(OC)cc3)nc3ccccc3c2=O)cc1	inconclusive: 0.1 µM [fluorescent, side channel, full curve, poor fit]	–
Cc1c(C(=O)O)nn(-c2cccc(C(F)(F)F)c2)c(=O)c1C#N	inconclusive: 14.1 µM [quencher, side channel, partial curve]	–
O=c1c2ccccc2nc2c3ccccc3c(NCCO)nn12	–	inactive: -0.705%
Cn1c(=O)n(C)c2cc(NC(=O)c3ccccc3[N+](=O)[O-])c(Br)cc21	inconclusive: 25.1 µM [quencher, side channel, partial curve]	–
CCOc1ccc(C(=O)Nc2ccccc2C#N)cc1[N+](=O)[O-]	inconclusive: 35.5 µM [quencher, side channel, partial curve]	–
C/C(=N\Nc1ccc([N+](=O)[O-])cc1[N+](=O)[O-])c1cccnc1	inconclusive: 2.51 µM [quencher, side channel, partial curve]	–
COC(CNC(=O)c1c[nH]c2ccc(S(=O)(=O)N3CCOCC3)cc2c1=O)OC	–	inactive: -7.88%
CC(C(N)=O)N1C(=O)c2cccc3cccc1c23 (configuration not stated)	inconclusive: 15.8 µM [quencher, side channel, partial curve]	–
O=C(CCc1nc2ccccc2c(=O)[nH]1)N1CCN(C/C=C/c2ccccc2)CC1	inconclusive: 100 µM [inhibitor, partial curve]	–
Cc1ccc(C(=O)NCc2nc3ccccc3[nH]2)o1	–	inactive: -4.32%
Cc1nn(Cc2ccc([N+](=O)[O-])cc2)c(=O)n1-c1cccc(Cl)c1	inconclusive: 7.94 µM [quencher, side channel, full curve]	–
COc1ccc(-c2cn3cccnc3n2)cc1	inconclusive: 31.6 µM [quencher, side channel, partial curve, poor fit]	–
CCOc1ccc(CC(=O)N2N=C(C)CC2(O)C(F)(F)F)cc1 (configuration not stated)	–	inactive: 9.47%
O=C(Nc1c2c(nn1-c1ccc([N+](=O)[O-])cc1)CS(=O)(=O)C2)c1ccccc1F	inconclusive: 1.78 µM [quencher, side channel, full curve]	–
CN(C)S(=O)(=O)c1cccc(NC(=O)c2ccc3nccnc3c2)c1	inconclusive: 15.8 µM [quencher, partial curve]	–
CCNc1nnc(-c2ccc(C)cc2)o1	–	inactive: 5.04%
COc1ccc(-n2nc3cc(C)c(N)cc3n2)cc1Cl	–	inactive: 12%
Cc1cccc(C(=O)NC(=S)Nc2ccc(S(=O)(=O)N3CCCCC3)cc2)c1	–	inactive: -3.92%
O=C(c1ccc([N+](=O)[O-])cc1)N1CCSC1c1ccc(Br)cc1 (configuration not stated)	inconclusive: 28.2 µM [quencher, side channel, partial curve]	–
O=C(/C=C/Nc1ccc(F)cc1)c1ccco1	inconclusive: 20 µM [quencher, side channel, partial curve]	–
O=C(NC1CCCCC1)c1cnn2c(C(F)(F)F)cc(-c3ccco3)nc12	inconclusive: 44.7 µM [quencher, side channel, partial curve, poor fit]	–

SMILES	Potency	activity change, negative = inhibition
COc1cccc(C(C[N+](=O)[O-])c2c(C)[nH]n(-c3ccccc3)c2=O)c1 (configuration not stated)	inconclusive: 50.1 µM [inhibitor, single point]	–
Cc1ccc(S(=O)(=O)N2CCN(S(=O)(=O)N(C)C)CC2)cc1	inconclusive: 3.16 µM [quencher, side channel, single point]	–
COc1ccc(C2=NS(=O)(=O)N(C)C(C(=O)NC3CCCCC3)=C2)cc1	inconclusive: 28.2 µM [quencher, side channel, single point]	–
Cc1cc(NC(=O)NC(=O)c2ccccc2)no1	–	inactive: -1.98%
CN(C)CCCNC(=O)N1c2ccccc2C=Cc2ccccc21	–	inactive: 1.12%
CCOC(=O)CC(=O)CSc1ccc2nnc(-c3ccccc3)n2n1	inconclusive: 0.562 µM [quencher, side channel, full curve, poor fit]	–
N=c1c(C(=O)NCc2ccc(F)cc2)cc2c(=O)n3ccccc3nc2n1Cc1cccnc1	inconclusive: 12.6 µM [quencher, side channel, partial curve]	–
O=C(Nc1cccc(-c2ccc3nncn3n2)c1)C(F)(F)F	inconclusive: 10 µM [quencher, side channel, partial curve]	–
CC1(c2ccc([N+](=O)[O-])cc2)Nc2ccccc2S1 (configuration not stated)	inconclusive: 15.8 µM [quencher, partial curve]	–
O=C1COc2ccc3ccccc3c21	inconclusive: 14.1 µM [quencher, side channel, partial curve]	–
O=C(NCc1ccccc1)c1ccc2nc(-c3ccco3)c(-c3ccco3)nc2c1	inconclusive: 15.8 µM [quencher, partial curve]	–
Cc1ccc2nc(C)c(C(=O)N/N=C/c3cccs3)n2c1	inconclusive: 35.5 µM [quencher, side channel, single point]	–
COc1ccc(C(=O)Nc2ccc(N3CCCC3)cc2)cc1Br	inconclusive: 4.47 µM [fluorescent, side channel, single point]	–
O=c1/c(=C\c2ccc3c(c2)OCO3)sc2n1CCCN=2	inconclusive: 14.1 µM [quencher, side channel, partial curve]	–
C/C(=N\NC(=O)c1ccco1)c1cccc2ccccc12	–	inactive: 10.5%
CCn1cc(-c2ccnc3cc(C(=O)O)nn23)c(C)n1	inconclusive: 31.6 µM [quencher, side channel, single point]	–
O=C(COC(=O)c1ccccc1Oc1ccccc1)NCc1ccco1	–	inactive: -0.403%
CN1CCN(S(=O)(=O)c2ccc(Sc3nc4ccccc4[nH]3)c3nsnc23)CC1	inconclusive: 1.41 µM [quencher, side channel, full curve]	–
COc1ccc2c(c1OC)C(=O)c1ccccc1C2=O	inconclusive: 2.51 µM [quencher, full curve, poor fit]	–
O=C(COC(=O)c1cc[n+]([O-])cc1)NCc1ccccc1Cl	inconclusive: 31.6 µM [quencher, side channel, partial curve]	–
